In PubChem BioAssay AID1240 (Sanford-Burnham Center for Chemical Genomics, 2008):
The whole screen tested about 50,000 compounds, of which about 800 (1.6%) showed an effect of 50% or more. This is one part of the list.

What follows are compounds tested against Bcl-2-like protein 10 (Homo sapiens) (UniProt Q9HD36) (assay: TR3 peptide-Bcl-B binding displacers, biochemical primary FP assay, phenotype converters (AID 1240;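 further: 0% = Bcl-B with tracer peptide and DMSO and 100% = tracer peptide lacking Bcl-B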)). Conditions: GST-Bcl-B / FITC-TR3 peptide fluorescence polarization; stronger effect = higher value; compound at 3.75 mg/L.
Sequence of UniProt Q9HD36 (Q9HD36 whole entry, looked up): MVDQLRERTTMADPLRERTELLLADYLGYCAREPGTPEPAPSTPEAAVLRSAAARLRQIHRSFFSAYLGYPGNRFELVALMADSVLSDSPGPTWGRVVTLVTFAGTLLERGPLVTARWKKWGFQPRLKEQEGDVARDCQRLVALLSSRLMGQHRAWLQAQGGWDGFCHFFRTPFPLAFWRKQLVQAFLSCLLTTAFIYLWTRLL

| Compound | displacement |
| --- | --- |
| CSc1ccc(/C=N/NC(=O)c2c[nH]c3ccccc23)cc1 | -0.8% |
| O=C1CSC2(O1)C1CC3CC(C1)CC2C3 (stereo not given) | 16.9% |
| CCOC(=O)c1ccc(NC(=O)C2CN(S(=O)(=O)c3ccccc3)CCN2S(=O)(=O)c2ccccc2)cc1 (stereo not given) | 11.2% |
| Cc1ccc(C(=O)CSc2nnnn2-c2ccccc2)c(C)c1 | -10.4% |
| O=C1/C(=C/c2ccccc2)SC(=S)N1c1ccccc1Br | 1.4% |
| CCOC(=O)C1=C(N)OC2=C(C(=O)CCC2)C1c1cc(C)ccc1C (stereo not given) | 4.5% |
| COc1cc2nc(-c3ccc(OC(C)=O)cc3)oc(=O)c2cc1OC | -3.2% |
| C=CC(=O)Oc1ccc(N2C(=O)C3CC=C(C)CC3C2=O)cc1 (stereo not given) | 4.1% |
| CNc1ccc2[nH]nc3c2c1C(=O)c1ccccc1-3 | 173% |
| COc1ccc(C(=O)N2CCN(CCCc3ccccc3)CC2)cc1 | -4.6% |
| Cc1ccc(-c2csc(N)n2)c(C)c1 | -5% |
| COc1ccc(/C=N/NC(=O)COc2ccccc2Br)cc1 | 2.6% |
| N#CCC(=O)N/N=C/c1cc([N+](=O)[O-])ccc1N1CCCC1 | -11.5% |
| O=C(CN(c1ccc(Cl)c(C(F)(F)F)c1)S(=O)(=O)c1ccccc1)N1CCOCC1 | 14.1% |
| CCOc1ccccc1NC(=O)c1c(NC(=O)c2ccco2)sc2c1CCCC2 | -3.8% |
| CCOC(=O)C1=NN(C(=O)c2cccc(Br)c2)C(O)(C(C)(C)C)C1 (stereo not given) | -20.6% |
| C=CCNC(=S)Nc1ccc(C(=O)OCC)cc1 | -3% |
| CCc1cc(C)cc(OCCOc2ccc(C=C3C(=O)NC(=S)NC3=O)cc2)c1 | -35.9% |
| CCn1c(C(O)c2cccc(OC)c2)nc2ccccc21 (stereo not given) | -1% |
| COc1cc(C(=O)N/N=C/C2CC=CCC2)ccc1O (stereo not given) | 19.4% |
| COc1ccc(OC)c(NC(=O)c2cccc(Cl)c2Cl)c1 | 1.8% |
| O=C(c1ccncc1)N1CCN(C(=O)c2cccc(Cl)c2)CC1 | -22% |

| Compound | displacement |
| --- | --- |
| COc1ccc(C(NC(=O)c2cccc(OC)c2)NC(=O)c2cccc(OC)c2)cc1 | 10.3% |
| COc1ccc(/C=N/Nc2nc(-c3ccc(C)cc3)nc3ccccc23)cc1 | 10.1% |
| Cc1cccc(C)c1NS(=O)(=O)c1ccccc1 | 2.3% |
| CC(C)OC(=O)c1c(-c2ccc(Cl)cc2)csc1N | 5.1% |
| NC(N)=NS(=O)(=O)c1ccc(NC(=S)NC(=O)c2ccc(F)cc2)cc1 | 10.6% |
| COc1ccc(S(=O)(=O)Nc2ccc([N+](=O)[O-])cc2OC)cc1 | -0.1% |
| C=C(C)CNC(=S)NNC(=O)c1cccc(C)c1[N+](=O)[O-] | -14.4% |
| COc1ccc(/C=C2/SC(=S)N(Cc3ccccc3)C2=O)c2ccccc12 | 60.2% |
| C=C(C)CSc1nnc2n(-c3ccc(OC)cc3)c(=O)c3c4c(sc3n12)COC(C)(C)C4 | 4.9% |
| Cc1cccc(N2C(=O)CC(N3CCN(c4ccccc4Cl)CC3)C2=O)c1 (stereo not given) | 13.5% |
| COc1ccc(/C=N/n2cc(-c3ccc(Cl)cc3)nc2N)cc1 | -4% |
| C=CCN(CC=C)Cn1[nH]c(=O)ccc1=O | 12.1% |
| CCOc1ccc(N2C(=O)CC(N3CCN(C(c4ccccc4)c4ccccc4)CC3)C2=O)cc1 (stereo not given) | 5.8% |
| O=C(/C=C/c1ccc(Cl)cc1)NCC1(c2ccccc2)CCOCC1 | -9.1% |
| COc1cccc(C2/C(=C(\O)c3ccc([N+](=O)[O-])cc3)C(=O)C(=O)N2CCCCCC(=O)O)c1 (stereo not given) | 0.2% |
| CCOc1ccccc1C=Nc1ccc(O)cc1 | -6.5% |
| COc1cc(C2C3=C(CC(C)(C)CC3=O)OC3=C2C(=O)CC(C)(C)C3)ccc1OCC(=O)O | 6.5% |
| c1cc2cc(C3=NCCN3)ccc2cc1C1=NCCN1 | 13.1% |
| Cc1ccc(C=C2C(=O)NC(=S)N(c3ccccc3Cl)C2=O)o1 | 15.9% |
| Cc1c(C(=O)OC(C)C)sc(NC(=O)c2ccc(Br)o2)c1C(=O)OC(C)C | -2.8% |
| CC1=C(C#N)c2nc(N)c(C#N)c(C)c2/C1=C\c1ccc(-c2ccc(C(=O)O)cc2)o1 | 12.2% |
| Cn1nnnc1SCC(=O)NCC(=O)c1ccccc1 | 0% |

| Compound | displacement |
| --- | --- |
| O=C1NC(=O)/C(=C\c2cc3c(cc2[N+](=O)[O-])OCO3)S1 | 6.8% |
| CCOC(=O)C1=C(C)NC(=O)NC1c1ccsc1 (stereo not given) | -5.1% |
| Cc1ccc(C(=O)/C=C/Nc2ccccc2)cc1 | -1.8% |
| CC(C)c1ccc(N2C(=O)NC(=O)/C(=C/c3cccc(O)c3)C2=O)cc1 | -16.3% |
| Fc1ccc(NC(=S)NCCN2CCOCC2)cc1 | -14.3% |
| CCOC(=O)c1c(NC(=O)c2ccc([N+](=O)[O-])cc2)sc2c1CCCCC2 | 12.4% |
| O=C1S/C(=C/c2ccc(Cl)cc2Cl)C(=O)N1c1ccccc1 | 8.7% |
| CC(=O)C(C)Oc1cc2oc(=O)cc(-c3ccccc3)c2cc1Cl (stereo not given) | -4.4% |
| O=C(NN1C(=O)/C(=C/c2ccc(Br)cc2)SC1=S)c1ccncc1 | 3% |
| COc1cc(/C=N/n2cnnc2)cc(Cl)c1OCCOc1ccc(C(C)(C)C)cc1 | -31.2% |
| COC(=O)c1cc(C(=O)Nc2cc(C)ccn2)cc([N+](=O)[O-])c1 | 3.9% |
| CCc1c(C)sc(NC(=O)C2CC3CCC2C3)c1C#N (stereo not given) | 12% |
| CCOC(=O)c1c(N2C(=O)C3C4C=CC(O4)C3C2=O)sc2c1CCCC2 (stereo not given) | -3.6% |
| O=C(O)/C=C\C(=O)Nc1ccc(C(=O)c2ccccc2)cc1 | 3.2% |
| CN1CCN(S(=O)(=O)c2ccc3ccccc3c2)CC1 | -0.7% |
| COc1ccc(OCC(=O)Nc2ccccc2OC)cc1 | -1.1% |
| COc1ccc2c(c1)-c1c(ssc1=S)C(C)(C)N2C(=O)CSc1nnc(C)s1 | 6.1% |
| COc1ccc(COC(=O)NNC(=O)c2ccc(Cl)cc2)cc1 | 2.1% |
| NC(=O)c1ccccc1NC(=O)c1ccc([N+](=O)[O-])cc1 | 7.5% |
| O=C(NCc1nc2ncc(Br)cc2[nH]1)c1ccccc1 | 23.1% |
| O=C1C(=O)N(Cc2ccccc2Cl)c2ccccc21 | 9.3% |
| O=C(O)c1ccc2c(c1)C(=O)N(c1cc(C(=O)c3ccccc3C(=O)O)ccc1Cl)C2=O | -12.8% |

| Compound | displacement |
| --- | --- |
| COc1cc(/C=C2/C(=O)NC(=O)N(c3ccc(C)cc3)C2=O)ccc1OCCOc1ccc([N+](=O)[O-])cc1 | 10.8% |
| O=C(/C=C/Nc1ccc(F)cc1)c1ccc(Br)cc1 | 5.4% |
| N#Cc1c(-c2ccc(Cl)cc2)cc(-c2ccccc2)[nH]c1=O | -15.6% |
| Cc1ccc2oc(C(=O)Nc3ccc(-c4nc5ccccc5o4)cc3)c(C)c2c1 | 39.7% |
| CSc1ccc(S(=O)(=O)N(CC(N)=O)c2ccc(C)cc2)cc1 | -4.3% |
| O=c1cc(-c2ccncc2)oc2ccccc12 | 13% |
| O=C(NCC1CCCO1)c1cc2nc(-c3ccccc3)cc(-c3ccccc3)n2n1 (stereo not given) | 9.8% |
| COc1ccc(N(CC(=O)NC(C)(C)C)S(=O)(=O)c2ccc(C)cc2)c(OC)c1 | -5% |
| CC(C)COc1ccc(C(=O)NC(C)C2COc3ccccc3O2)cc1 (stereo not given) | -3.5% |
| Cc1cccc2[nH]c(SCc3ccccc3F)nc12 | -15% |
| COC(=O)CN(c1cc(C)ccc1C)S(=O)(=O)c1ccccc1 | -6.3% |
| O=C(Nc1sc2c(c1C(=O)O)CCCC2)c1ccc(Cl)cc1 | -1.3% |
| Clc1cccc(Cc2cnc(Nc3ccccn3)s2)c1Cl | -3.8% |
| Cc1ccc(C(=O)NCCC(C)C)cc1[N+](=O)[O-] | 11.1% |
| Cc1ccc(N2CCN(C3=NC(=O)/C(=C/c4ccc(Cl)cc4)S3)CC2)cc1 | -2.4% |
| COc1cc([N+](=O)[O-])cc(/C=C2\C(=O)NC(=O)N(c3ccc(Cl)cc3)C2=O)c1O | -3.8% |
| COc1cc(C2NC(=O)NC(C)=C2C(=O)OCCOC(C)C)ccc1OCc1ccccc1 (stereo not given) | 3.9% |
| c1ccc(C(c2ccccc2)N2CCN(c3ccc4ccccc4n3)CC2)cc1 | 2.2% |
| Cc1cccc(C2(c3cccc(C)c3)CC2C(=O)Nc2ccccc2Cl)c1 (stereo not given) | 19.1% |
| S=C(NCc1ccco1)Nc1cccc(Cl)c1 | -8.2% |
| O=C(O)c1cnn2c(C(F)(F)F)cc(-c3cccs3)nc12 | 5.9% |
| Nc1ccc2oc(-c3cccc4c(Br)cccc34)nc2c1 | 0.1% |

| Compound | displacement |
| --- | --- |
| COc1ccccc1N1CCN(C(=O)/C=C/c2ccc(C)cc2)CC1 | 2.1% |
| O=C(Nc1ccc(Oc2ccccc2)cc1)c1cccs1 | 9.4% |
| Cc1ccc2oc(C(F)(F)F)cc(=O)c2c1 | 9.9% |
| CC(=O)c1ccc(Nc2nc(-c3ccccc3O)nc3ccccc23)cc1 | -1.9% |
| CC(=O)Oc1ccc(Br)cc1/C=C1\SC(=S)NC1=O | -1.3% |
| O=C(NCc1ccco1)C1CC(=O)N(c2ccc(Br)cc2)C1 (stereo not given) | -1% |
| COc1ccccc1CC(=O)NC1CCCCCC1 | 11.9% |
| CCCCCCc1nnc(NC(=O)C(C)(C)C)s1 | -7.9% |
| O=C(Nc1ccc(-c2nc3ccccc3o2)c(O)c1)c1ccc(-c2cccc(Cl)c2)o1 | 38% |
| COC(=O)CN(C(C)=O)C(c1ccccc1)c1cc(Br)ccc1NC(=O)c1ccccc1Cl (stereo not given) | 16.4% |
| COCCNC(=O)/C(=C/c1ccc(-c2cc(Cl)ccc2Cl)o1)NC(=O)c1ccc(C)cc1 | -83% |
| Cc1c(NC2=C(Cl)C(=O)c3c(Cl)c(Cl)c(Cl)c(Cl)c32)c(=O)n(-c2ccccc2)n1C | 25.8% |
| Cn1ccnc1SCC(=O)Nc1ncc([N+](=O)[O-])s1 | 7.9% |
| CC(CNC(c1ccccc1)c1ccccc1)(NS(=O)(=O)c1ccccc1)c1ccccc1 (stereo not given) | -1.3% |
| O=C(Nc1cccc(I)c1)c1cc2ccccc2oc1=O | 10.2% |
| N#CC(C#N)=NNc1cccc2c(S(=O)(=O)O)cccc12 | 8.2% |
| Cc1ccc(OCC2CNC(=O)O2)cc1 (stereo not given) | 11.6% |
| CC1(C)Cc2nc(N)c(C#N)cc2CO1 | -10.3% |
| C/C(=N\NS(=O)(=O)c1ccccc1)c1ccc(I)cc1 | 0.8% |
| O=C(NC(=S)Nc1cc([N+](=O)[O-])cc(Cl)c1O)c1ccccc1 | 11.6% |
| NS(=O)(=O)c1ccc(NC(=O)c2ccc(S(=O)(=O)N3CCOCC3)cc2)cc1 | -6% |
| CC(C)C(C(=O)O)N1C(=O)/C(=C/c2ccccc2Cl)SC1=S (stereo not given) | 13.8% |
